PubChem BioAssay AID493208 (National Center for Advancing Translational Sciences (NCATS), 2011)
Screen size: about 44,000 compounds; about 340 (0.77%) were called active. About 5% were inconclusive and are not listed. The call rests on the fitted dose curve; in most records, active means well fitted inhibition curve with a large enough effect; inconclusive means small, poorly fitted or top-dose-only effect; inactive means flat fitted curve, though single readings scatter. The list shows a part of the results.

Experiment: Acumen qHTS Assay for Inhibitors of the mTORC1 Signaling Pathway in MEF (Tsc2-/-, p53-/-) Cells: Sytravon;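 further: plate controls were DMSO for no effect and rapamycin for full effect; nearly all actives have a fitted effect of over 50% in size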
Settings: phospho-rpS6 immunofluorescence/PI, 24 h; series mostly up to 38.3 µM; activity change, negative = inhibition: at the top concentration
Method in brief: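 Tsc2-/-, p53-/- mouse embryonic fibroblasts (empty-vector line) exposed to compound 24 hrs at 37 C, fixed, immunostained for phospho-rpS6 and counterstained with propidium iodide. Acumen laser scanning gives % positive cells from Alexa 488/PI ratio, thresholded using 7.5 nM rapamycin; PI count gives viability.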

Activity change, negative = inhibition, inactive:
CCc1cccc(CC)c1NC(=O)CCS(=O)(=O)c1ccc2c(c1)CCN2C(C)=O -0.205%
COc1ccc(-c2nc(CNS(=O)(=O)c3cccc(F)c3)cs2)cc1 0.4%
O=C(CCCn1c(=O)c2cccn2c2ccccc21)NCc1ccccc1Br 6.69%
Cc1ccc(Nc2sc(C(=O)c3ccccc3)c(N)c2C(N)=O)cc1 -8.29%
CC1CCN(C(=O)C2COc3ccccc3C2)CC1 (stereo not drawn) 1.66%
CNC(=O)c1cnc2sc(N3CCCCCC3)nn2c1=O -1.05%
COc1ccc(C(=O)Nc2nc3ccccc3n2CCOc2ccc(Cl)cc2)cc1 -7.16%
CCOc1ccc(N(CC)C(=O)CCc2nc(-c3ccccc3F)no2)cc1 -25%
CCC(Sc1nnc(-c2ccc(OC)c(OC)c2)c(-c2ccc(OC)c(OC)c2)n1)C(=O)NC1CCCC1 (stereo not drawn) -8.46%
Cc1cccn2c(=O)cc(CSc3nnc(NC(=O)c4ccc(F)cc4)s3)nc12 -6.82%
CCc1ccc(NC(=O)C(Cc2ccccc2)NS(=O)(=O)c2ccc3c(c2)c(=O)n(C)c(=O)n3C)cc1 (stereo not drawn) -8.98%
Cc1nc(-n2nc(C)c(CCC(C)C)c2C)sc1C(=O)Nc1cccc(Cl)c1 1.94%
Cc1cccc(C)c1NC(=O)c1sc(-n2nc(C)c(Cc3ccc4c(c3)OCO4)c2C)nc1C 0.84%
Clc1ccc(NCc2nc3ccccc3n2CCOc2ccccc2)cc1 -13.6%
COc1ccc(Cl)cc1NC(=O)Cn1c(=O)c2ccccc2n2nncc12 -1.14%
Cc1ccc(NC(=O)Cn2nc3c(cc2=O)CCCC3)cc1Cl 1.31%
CCN(C(=O)CSc1nc2ccccc2nc1Cc1ccc(F)cc1)c1cccc(C)c1 3.89%
CCc1ccc(NC(=O)Cn2cc(S(=O)(=O)c3ccc(F)cc3)c(=O)c3cc(OC)ccc32)cc1 -18.4%
CC(=O)c1ccc(NC(=O)CCc2c(C)nn(-c3ccc4nnc(C)n4n3)c2C)cc1 -1.29%
CC(C)CC(C(=O)NCC1CCN(Cc2ccc(F)cc2)CC1)N1Cc2ccccc2C1=O (stereo not drawn) -18.4%
COc1ccc(NC(=O)C2CCC(CNS(=O)(=O)c3ccc(Br)s3)CC2)c(OC)c1 (stereo not drawn) -2.45%
COc1cc(NC(=O)N2CCC(CN3CCCCCC3)CC2)cc(OC)c1OC -16%
O=C(CSc1nc(-c2ccccc2)nc2cc(=O)[nH]n12)Nc1ccccc1 -2.2%
Cc1ccccc1C(=O)N1c2ncnn2C2(CCCCC2)[C@@H]2CCCC[C@@H]21 -18.3%
CCc1nc(-c2ccc(C)c(S(=O)(=O)N3CCN(c4ccc(C(C)=O)cc4)CC3)c2)no1 3.46%
O=C(NCCn1cc(SCc2ccc(F)cc2)c2ccccc21)c1cccs1 -1.22%
CCn1cc(C(=O)N2CCN(c3cc(Cl)ccc3C)CC2)c(=O)c2cc(S(=O)(=O)N3CCCCC3)ccc21 -1.13%
Cc1ccccc1Cn1c(=O)n(CCC(=O)NCc2ccco2)c(=O)c2sccc21 -4.38%
CC(C)Nc1nc2c(-c3cccc(Br)c3)nnn2c2ccccc12 -9.95%
Cc1ccc(NC(=O)CSc2nc(-c3ccco3)nc3cc(=O)[nH]n23)cc1 3.16%
COc1ccccc1NC(=O)C1=C(C)Nc2nc(-c3ccco3)nn2C1c1ccccc1F (stereo not drawn) -19.8%
CCCc1cc(=O)[nH]c(Nc2ccc(OCC)cc2)n1 -6.57%
Cc1cccc(S(=O)(=O)c2cn(C)c3cc(N4CCN(c5ccccc5)CC4)c(F)cc3c2=O)c1 0.329%
Cc1ccc(Cn2c(C)c3cnn(CC(=O)NCCc4ccc(Cl)cc4)c(=O)c3c2C)cc1 -3.08%
COc1cccc(CCNC(=O)c2cnc3sc(N4CCOCC4)nn3c2=O)c1 -10%
CCCNC(=O)CN1CCN(c2ccc(NC(=O)c3ccc(OC)cc3)cc2C(=O)O)CC1 -2.52%
COc1ccc(CNC(=O)c2ccc(NC(=O)N3CCSc4ncccc43)cc2)cc1 -0.775%
Cc1ccccc1C(=O)N1CCC(C(=O)Nc2ccc(F)cc2F)CC1 3.6%
Cc1ccc(S(=O)(=O)c2nc(-c3ccccc3F)oc2NCc2ccccc2)cc1 -11.5%
Cc1nc(N2CCOCC2)c2c(C(=O)N3CCN(c4ccccc4)CC3)c(C)oc2n1 3.64%
CCOC(=O)c1cccc(NC(=O)NC(C)c2c(-n3cccc3)sc3c2CCN(C)C3)c1 (stereo not drawn) -8.72%
Cc1cc2c(cc3c(SCC(=O)Nc4ccc(Cl)cc4F)nncn32)o1 1.09%
COCCCN1C(=O)c2oc3ccccc3c(=O)c2C12C(=O)N(C)c1ccccc12 (stereo not drawn) 5.92%
O=C(COc1ccccc1F)Nc1ccc(OCc2cc(=O)n3ccccc3n2)cc1 -1.64%
CCOc1ccc(NC(=O)CCc2c(C)nc3c(-c4ccccc4)c(C)nn3c2C)cc1 -4.69%
COC(=O)c1ccc(Cn2c(SCc3ccc(F)cc3)nc3ccncc32)cc1 -6.29%
Cc1ccc(CNC(=O)CSC2=Nc3ccccc3N=C(c3ccc(F)cc3)C2)cc1 -5.3%
O=c1ccc2cc(S(=O)(=O)Nc3ccc(OC(F)(F)F)cc3)ccc2[nH]1 6.37%
